In the supplement of paper PMC7125110:
± gives the standard error. This sample is rich in variants without activity.

B1: glmS ribozyme (parent)
chain: AUAAAAGCGCCAGAACUACAGAAAUGUAGUUGACGAGGAGGAGGUUUAUCGAAUUUUCGGCGGAUGCCUCCAAA

Variants of: B1
Assay: self-cleavage kobs at 2500 uM GlcN6P; higher = faster cleavage; RNA array
Conditions: with glucosamine-6-phosphate
Procedure, shortened: (§1)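 A hybridised Cy3 probe tracked barcoded ribozyme variants, transcribed in situ by E. coli RNA polymerase on sequenced MiSeq chips, at 37 °C. The variants received 40 μM to 10 mM glucosamine-6-phosphate in HEPES/KCl/Mg(OAc)2 buffer. kobs came from decay fits and kcat and KM from weighted Michaelis–Menten fits.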

self-cleavage kobs at 2500 uM GlcN6P, 0.000102 ± 3.1e-05 s⁻¹:
C58U U65A C68G

self-cleavage kobs at 2500 uM GlcN6P, 3.85e-05 ± 1.1e-05 s⁻¹:
U55C C58G

self-cleavage kobs at 2500 uM GlcN6P, 8.04e-05 ± 3.5e-05 s⁻¹:
U45A U46A A52U

self-cleavage kobs at 2500 uM GlcN6P, 9.35e-05 ± 1.7e-05 s⁻¹:
U54G C58G

self-cleavage kobs at 2500 uM GlcN6P, 5.8e-05 ± 1.3e-05 s⁻¹:
G41C U46A

self-cleavage kobs at 2500 uM GlcN6P, 8.64e-05 ± 2.2e-05 s⁻¹:
C50A U65G C67A

self-cleavage kobs at 2500 uM GlcN6P, 0.000971 ± 0.00023 s⁻¹:
A39C U47C U55A

self-cleavage kobs at 2500 uM GlcN6P, 0.000181 ± 1.8e-05 s⁻¹:
A39U A48C

self-cleavage kobs at 2500 uM GlcN6P, 4.16e-05 ± 1.5e-05 s⁻¹:
A52U U55C A64G

self-cleavage kobs at 2500 uM GlcN6P, 0.000157 ± 4.5e-05 s⁻¹:
A39G G44U A53C

self-cleavage kobs at 2500 uM GlcN6P, 0.00014 ± 4.5e-05 s⁻¹:
A39C A42C G66A

self-cleavage kobs at 2500 uM GlcN6P, < 1e-05 s⁻¹:
G38U U47G G59U U69A
G43A G44U C50A G66C
G51U A64G C70U
U49G A53C C58G
A39C G51U C67A U69G
A52C G59C G63U A64G C67A
G41A C50U C71U
G40A U54G U69A
G40C G43U C50U
G44C U49A G51C
G41A G44A U56A G62A U69A
G38U A39G C71G
G40C G41U G43C U46C C70G
G51C G62U C71G
G51U G60U C71G
G44U G63C C67U
G41U G44U C67U U69G
U46C C50A G63U
G43C A52U A53G U57A
G51A G63C
A42G U49G A53C G59C C67U
G43U U45G U56A G59U G60U U65A
G44U U49C A64G
G43U C50A A64U
G41U G51C G63U
G40U A52U G60C
C50A A52U A53G U54C U65C
G40U A48C C50U
A39C C50A C61U C71U
A48C U57A G62C
G40A U49C
G38U G43A U47C C67U
A42G U47A G66C C70U
G41A G43U G60C C61U
U49A A52U A64G
A48U U57C U65G
A39U C50G A64G
A39G G43C G51U A64G
G41U C58A C70U C71A
U45A U46G G62C
G40A G41C C68A
A39G U49A G62C
A39C U47G U49A C70A
G44C C50U
A52C G59C A64U
G41A C50U C61G
G51A G62A U65A
G38U G40U A48U C68G
A42G G43U A48C C58A
G44U U49C C50G G51C
A48G C50G A52U
C50A G60U G63A
A39G G43A A52U U69C
G44C G51A U55C U56C
G41A G44U A53G C58A G59U
U47C C58U C61U
U56G G60C C70U
A42U C58U U65G
G41A A42U U56C
G43A C50U G62U
G43A G66U C67U C71U
G41A A42G A64C C68A
A39G A48C C58G
G41C U45G A48C U55A
G60U G63A U69G C70A
A48C C50G C70U
G38C U57G G59A A64G
A39G U54G G60C C61A

self-cleavage kobs at 2500 uM GlcN6P, 0.000771 ± 0.00023 s⁻¹:
A39U G66A C70G

self-cleavage kobs at 2500 uM GlcN6P, 3.9e-05 ± 1e-05 s⁻¹:
G41A U49G

self-cleavage kobs at 2500 uM GlcN6P, 3.91e-05 ± 1.5e-05 s⁻¹:
A53G G59A

self-cleavage kobs at 2500 uM GlcN6P, 0.000248 ± 8.4e-05 s⁻¹:
G38U C67G C68U

self-cleavage kobs at 2500 uM GlcN6P, 2.98e-05 ± 1.2e-05 s⁻¹:
A53G G59U

self-cleavage kobs at 2500 uM GlcN6P, 4.16e-05 ± 1.1e-05 s⁻¹:
A39C C71A

Variants of: B1
Assay: self-cleavage kobs at 10000 uM GlcN6P; higher = faster cleavage; RNA array
Conditions: with glucosamine-6-phosphate
Procedure, shortened: as §1

self-cleavage kobs at 10000 uM GlcN6P, 0.000164 ± 2e-05 s⁻¹:
U54G C58G

self-cleavage kobs at 10000 uM GlcN6P, < 1e-05 s⁻¹:
C10G A15U A48G U55C
A6G G7C C8G G9C C11A A12G G13C C34U
C10A U30G A33U A36U
G7U A33C G43A
G7U G9U A64G
C10A G37C
C8G G40U U57C G59A
G9U A14C A36C U46A
C8A C10A G35C
A6G C10U A36U A52U C70U
C8G U45G U55C C71A
C10A G13C G35C A39U
C8A G41U U46G G63A
C10A U45A U47G U57A G66C C70U
G7U C8G C16A
G9A G37C A42G C61A
C8A U30C U47G C58U
G43C A52U A53G U57A
C8U G9A G35C A36C G44U C68U
G51A G63C
A6U U56C C70U
C10G U57G C67A
G9U G40A U54A C61U
A6C C16U G29C C58A
A6U C8G U30C U55C
A6C A53C U57C C71G
G7A U30A A39C A48C
C8U U31C A39U G66C
G7C U55G U56C U69A
G7C G41A C61U
G7U C58U C71A
G7A A39C G59C
G40A U49C
C8G G9C C70U
U49A A52U A64G
C8A G63U G66U
G9C G32A A42G
G7A A33U G51A
A6G U31A G35C U47C U49A U54A
C10U A15U A39G G41U
C8A G38A G40C U57C
C8G C10U U54G
G44C C50U
G7C A48C A64G
G7U C10U G37A C67A
A42G G43U A48C C58A
A6C G37A G38A U47C A53C G63A C71G
G7U G13A A14U
C8A G21U
A6G C16A A33C U46G A53G U54A
C8A G9C U30C C71A
G9U G37U U54C U69G
A6G C34G A36C
A6U G43U C58A C68U
A1U U2G A3G C8G C34G
A6C G35C G38U
A6G C16U G41U G43A U47G
G7C G60U C61G
C8U A39C C61A
G7C U31C C34U G44C C70A
A6G G7U A15U C67G
G9C C16A A48G
C10G G38A C70A
C8U C16G A64C
G9U A15U A52U
A39G A48C C58G
C8U G35A G38A G41U A64C
G9C A39G C68U
C8G C11A G60C
C8G G29C G35A
G7A G29C G32U U57C C58A
G9U A36G G38U G44U A52U G63U
C8G G32C G60C
C10G A39U A48C
C10A A33U U45C C58A
G9A U56C C58G
C10G A14C A36U G66A
G7U G9U A36G
A39G U54G G60C C61A
G7U G51C U54G

self-cleavage kobs at 10000 uM GlcN6P, 0.000103 ± 2.1e-05 s⁻¹:
U2C C11U G59U

self-cleavage kobs at 10000 uM GlcN6P, 0.000895 ± 0.00024 s⁻¹:
G7U A48G C50G C61G

self-cleavage kobs at 10000 uM GlcN6P, 0.000196 ± 1.6e-05 s⁻¹:
A39U A48C

self-cleavage kobs at 10000 uM GlcN6P, 7e-05 ± 1.9e-05 s⁻¹:
A53G G59A

self-cleavage kobs at 10000 uM GlcN6P, 4.1e-05 ± 2e-05 s⁻¹:
A6U C50G A53C C71A

self-cleavage kobs at 10000 uM GlcN6P, 2.45e-05 ± 7.8e-06 s⁻¹:
A53G G59U

self-cleavage kobs at 10000 uM GlcN6P, 9.03e-05 ± 1.3e-05 s⁻¹:
G41C U46A

self-cleavage kobs at 10000 uM GlcN6P, 3.34e-05 ± 8.6e-06 s⁻¹:
G41A U49G

self-cleavage kobs at 10000 uM GlcN6P, 5.25e-05 ± 7.2e-06 s⁻¹:
A39C C71A
